# “And” between values parts separate entries of the source, which are not always exact repeats. Equal entries are not always repeated. Inconclusive means that the source gave no clear call. Such entries were picked first, then a sample of the others. For some assays here: Potencies beside an inconclusive call are fits to weak or partial responses and may not hold up. The source made the active and inactive calls. Unless noted, calls follow the shape of the dose curve; as a rule, active = well fitted curve in either direction with a large enough effect (not every such curve was filed as active); inconclusive = small, poorly fitted or top-dose-only effect, or another doubt; inactive = flat fitted curve, though single readings scatter.
# Experiments:
# [1] = NFAT Signaling Pathway (AID 444); details: Jurkat NFAT-bla M1, carbachol, beta-lactamase ratio, 5 h; at 17.2 µM (top of the series) unless noted;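 also: carbachol stimulus at about its EC50 of 1 µM final; % is scaled to controls: 0 for no effect and ±100 for the full control effect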
# Method in brief: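 Read-out: CCF4 FRET ratio (460 nm/530 nm) after 1 h RT dye loading, used for %activity and AC50 from titration series. Cells: Jurkat NFAT-β-lactamase/M1 line, treated with compound plus 1 uM carbachol for 5 h, 37 °C.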
# [2] = qHTS Assay for Identification of Small Molecule Agonists for Hypoxia Response Element Signaling Pathway (AID 914; active = well fitted activation curve with a large enough effect in the signal ratio, with a control signal flat, not every such curve was filed as active; inconclusive = small, poorly fitted or top-dose-only effect, or effect the other way, or a change in a side signal; the % refers to the signal ratio; also: potency is read from the fitted curve at half-maximal effect; as to activation: top concentration of the series differs between compounds; % of control where 0% means no effect); details: ME-180 HRE-bla reporter, beta-lactamase ratio, CoCl2, 17 h; activation: active compounds read high
# Method in brief: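 Reporter activity (beta-lactamase, CCF4 460nm/530nm ratio) in HRE-bla ME-180 cells is recorded after 17 h compound exposure with EC50 CoCl2 at 37 degrees Celsius. AC50 values come from titration data.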
# [3] = Stat Signaling Pathway (AID 446); details: ME-180 (cervical carcinoma) SIE beta-lactamase reporter, IL-6 stimulated, 5 h; at 7.69 µM (top of the series) unless noted;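 also: ME-180 cervical cancer cells given 40 pM IL-6 alongside compound; SIE-controlled beta-lactamase reporter measured as 460/530 nm FRET emission ratio; top concentration of the series differs between compounds; % is scaled to controls: 0 for no effect and ±100 for the full control effect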
# Method in brief: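 FRET read-out (405 nm excitation, 460/530 nm emission) of a beta-lactamase reporter under a STAT-inducible element in ME-180 cervical carcinoma cells. Cells with compound receive 40 pM IL-6 for 5 h. Values are normalised to AC90 stimulation and AC90 JAK-inhibitor controls.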
# [4] = Confirmation and Secondary Assay for Modulators of Hemoglobin Beta Chain Splicing at IVS2 705 locus (AID 930; active = well fitted curve in the direction sought with a large enough effect; inconclusive = small, poorly fitted or top-dose-only effect, or another doubt; inactive = no such curve, though single readings can be large; an effect the other way counts as inactive or inconclusive;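 also: HeLa cells stably expressing the EGFP-705 splicing reporter; GFP fluorescence per well restored by corrected splicing of the IVS2-705 intron in EGFP; % of control where 0% means no effect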)
# Method in brief: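 Stable HeLa line with EGFP disrupted by mutant beta-globin intron 2 (705). Overnight attachment, then 2 days of compound at 37C, 5% CO2. Signal: peak GFP intensity summed over objects 5-250 µm.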
# [5] = target: Ubiquitin carboxyl-terminal hydrolase 1 (Homo sapiens) (UniProt O94782); experiment: Inhibitors of USP1/UAF1: Pilot qHTS (AID 504865; active = well fitted curve in the direction sought with a large enough effect; inconclusive = small, poorly fitted or top-dose-only effect, or another doubt; inactive = no such curve, though single readings can be large; an effect the other way counts as inactive or inconclusive;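 also: rhodamine fluorescence freed from ubiquitin-rhodamine substrate followed over time; potency is read from the fitted curve at half-maximal effect; nearly all actives have a fitted effect of over 35% in size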)
# Method in brief: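 Deubiquitinase activity followed as kinetic rhodamine fluorescence release from 150 nM Ub-Rho. 1 nM USP1/UAF1 with compound, after 15 min room-temperature preincubation, in HEPES pH 7.8 buffer containing TCEP, EDTA, BSA and Tween-20.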
# [6] = target: Mitogen-activated protein kinase 10 (Mus musculus) (UniProt Q61831); experiment: JNK3 AlphaScreen Assay (AID 530); details: JNK3 lysate, c-Jun phosphorylation; activity change, negative = inhibition: at 57.1 µM (top of the series);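 also: kinase came from lysate of stimulated human HepG2 cells; signal reports phosphorylation of biotinylated GST-cJun 1-79 at Ser73 with 10 µM ATP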; also: potency is read from the fitted curve at half-maximal effect; as to activity change, negative = inhibition: % is scaled to controls: 0 for no effect and ±100 for the full control effect
# Method in brief: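 qHTS titrations with 15 min compound pre-incubation before adding ATP (10 uM final). Read-out: AlphaScreen of Ser73-phosphorylated biotin-GST-cJun using HepG2 lysate JNK3 activated by IL-1β and TNFα.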
# [7] = target: Luciferin 4-monooxygenase (Photinus pyralis) (UniProt P08659); experiment: Biochemical firefly luciferase enzyme assay for NPC (AID 624030; active = well fitted curve in the direction sought with a large enough effect; inconclusive = small, poorly fitted or top-dose-only effect, or another doubt; inactive = no such curve, though single readings can be large; an effect the other way counts as inactive or inconclusive;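 also: purified P. pyralis luciferase at 10 nM with luciferin and ATP substrate; 0% = DMSO and -100% = full luciferase inhibition by PTC124 control; nearly all actives have a fitted effect of over 70% in size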)
# Method in brief: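 Direct inhibition of firefly luciferase enzyme (10 nM final, 50 mM Tris Acetate) assessed by luminescence within 5 minutes. Percent activity scaled between DMSO and PTC124 positive control, with concentration-effect curves classified by fit quality and response.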
# [8] = tested on: 7G8; experiment: qHTS profiling for inhibitors of Plasmodium falciparum proliferation (AID 504749; active = well fitted curve in the direction sought with a large enough effect; inconclusive = small, poorly fitted or top-dose-only effect, or another doubt; inactive = no such curve, though single readings can be large; an effect the other way counts as inactive or inconclusive; also: nearly all actives have a fitted effect of over 60% in size; also: potency is read from the fitted curve at half-maximal effect;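 as to activity, negative = inhibition: 0% = DMSO vehicle and full inhibition = artemisinin control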); details: P. falciparum in erythrocytes, SYBR Green DNA, 72 h; series mostly up to 28.7 µM
# Method in brief: (§1)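 SYBR Green fluorescence of parasite DNA, read after lysis and overnight dark incubation, measured growth over 72 h in erythrocyte culture at 0.3% parasitemia and 2.5% hematocrit. Data normalised to DMSO and 0.29 uM artemisinin, with plate-drift correction.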
# [9] = tested on: CP260; experiment: as above; details: P. falciparum in erythrocytes, SYBR Green DNA, 72 h; series mostly up to 28.7 µM
# Method in brief: as §1
# [10] = tested on: CP329; experiment: as above; details: P. falciparum in erythrocytes, SYBR Green DNA, 72 h; series mostly up to 28.7 µM
# Method in brief: as §1
# [11] = tested on: DIV14; experiment: as above; details: P. falciparum in erythrocytes, SYBR Green DNA, 72 h; series mostly up to 28.7 µM
# Method in brief: as §1
# [12] = tested on: ECU; experiment: as above; details: P. falciparum in erythrocytes, SYBR Green DNA, 72 h; series mostly up to 28.7 µM
# Method in brief: as §1
# [13] = tested on: ICS; experiment: as above; details: P. falciparum in erythrocytes, SYBR Green DNA, 72 h; series mostly up to 28.7 µM
# Method in brief: as §1
# [14] = target: 3',5'-cyclic-AMP phosphodiesterase 4B (Homo sapiens) (UniProt Q07343); experiment: qHTS Assay for Inhibitors of PDE-IV (AID 607; active = well fitted activation curve with a large enough effect in the main read-out, with a control signal flat, not every such curve was filed as active; inconclusive = small, poorly fitted or top-dose-only effect, or effect the other way, or a change in a side signal; also: potency is read from the fitted curve at half-maximal effect); details: HEK293 ACTOne CNG channel cells, membrane potential fluorescence; activation (PDE inhibition): at 22.9 µM (top of the series)
# Method in brief: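 Cell-based read-out of cAMP via a modified cyclic nucleotide-gated channel and membrane potential dye (535/590 nm) in HEK293 cells expressing PDE4 endogenously. Compounds tested up to 22.9 uM final; 100 uM RO 20-1724 reference.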
# [15] = target: Cytochrome P450 2C19 (Homo sapiens) (UniProt P33261); experiment: qHTS Assay for Inhibitors and Substrates of Cytochrome P450 2C19 (AID 899; active = well fitted curve in the direction sought with a large enough effect; inconclusive = small, poorly fitted or top-dose-only effect, or another doubt; inactive = no such curve, though single readings can be large; an effect the other way counts as inactive or inconclusive; also: potency is read from the fitted curve at half-maximal effect; nearly all actives have a fitted effect of over 60% in size)
# Method in brief: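 5nM enzyme + 10uM Luciferin-H EGE (=KM), 50mM KPO4; cpd pin-transferred, 10 min 37C; NADPH regen, 60 min 37C; stopped w/ luciferin detection reagent, 20 min; luminescence. Normalized to 57uM ketoconazole (AC100).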
# [16] = S16 Schwann cell PMP22 intronic element firefly luciferase assay (AID 624032; active = well fitted curve in the direction sought with a large enough effect; inconclusive = small, poorly fitted or top-dose-only effect, or another doubt; inactive = no such curve, though single readings can be large; an effect the other way counts as inactive or inconclusive; also: potency is read from the fitted curve at half-maximal effect; nearly all actives have a fitted effect of over 30% in size)
# Method in brief: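 Luciferase reporter of PMP22 intronic-element expression in stably transfected S16 rat Schwann cells, read by ONE-Glo luminescence after 24 h compound exposure at 37 C. Activity scaled between DMSO (0%) and positive-control PTC124; concentration-effect curves quality-classified.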
# [17] = S16 Schwann cell PMP22 intronic element beta-lactamase assay (AID 624044; calls by dose curve;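 also: 0% = DMSO and -100% = potassium clavulanate positive control; nearly all actives have a fitted effect of over 15% in size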); details: S16 rat Schwann cells, PMP22 element beta-lactamase FRET, 24 h; ratio activity, negative = inhibition: at 38.3 µM (top of the series) unless noted
# Method in brief: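 Beta-lactamase reporter under a PMP22 intronic regulatory element in stable S16 rat Schwann cells; 24 h compound exposure. 460 nm blue signal normalized between DMSO (0%) and potassium clavulanate, with 535 nm FRET tracking viability; curves classed by r2 and response.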
# [18] = tested on: CP237; experiment: qHTS profiling for inhibitors of Plasmodium falciparum proliferation (AID 504749); also: nearly all actives have a fitted effect of over 60% in size; also: potency is read from the fitted curve at half-maximal effect;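 as to activity, negative = inhibition: 0% = DMSO vehicle and full inhibition = artemisinin control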; details: P. falciparum in erythrocytes, SYBR Green DNA, 72 h; series mostly up to 28.7 µM
# Method in brief: as §1
# [19] = tested on: PAD; experiment: as above; details: P. falciparum in erythrocytes, SYBR Green DNA, 72 h; series mostly up to 28.7 µM
# Method in brief: as §1
# Tags tell the direction and shape of the fitted curve or compound fluorescence and quenching.
# UniProt O94782, sequence (O94782 whole entry, looked up): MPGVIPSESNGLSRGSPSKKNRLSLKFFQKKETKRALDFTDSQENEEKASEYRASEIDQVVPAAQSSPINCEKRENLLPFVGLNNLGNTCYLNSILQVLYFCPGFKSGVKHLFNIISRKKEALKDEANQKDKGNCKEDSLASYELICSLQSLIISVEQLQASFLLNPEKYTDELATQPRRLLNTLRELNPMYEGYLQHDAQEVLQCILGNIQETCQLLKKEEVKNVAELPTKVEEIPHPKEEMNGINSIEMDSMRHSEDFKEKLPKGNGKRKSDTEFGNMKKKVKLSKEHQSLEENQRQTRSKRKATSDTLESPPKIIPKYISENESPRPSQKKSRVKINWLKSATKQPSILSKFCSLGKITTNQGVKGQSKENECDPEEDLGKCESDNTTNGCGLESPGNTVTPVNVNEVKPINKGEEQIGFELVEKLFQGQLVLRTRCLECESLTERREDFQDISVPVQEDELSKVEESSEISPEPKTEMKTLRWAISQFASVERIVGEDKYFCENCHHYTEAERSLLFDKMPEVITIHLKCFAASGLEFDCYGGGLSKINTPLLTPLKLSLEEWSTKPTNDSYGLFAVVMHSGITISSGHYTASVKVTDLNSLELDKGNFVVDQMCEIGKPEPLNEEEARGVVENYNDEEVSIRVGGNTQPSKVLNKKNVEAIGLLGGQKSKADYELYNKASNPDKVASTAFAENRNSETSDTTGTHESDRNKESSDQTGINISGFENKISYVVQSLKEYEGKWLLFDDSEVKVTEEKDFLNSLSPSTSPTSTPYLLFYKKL
# UniProt P08659, sequence (P08659 whole entry, looked up): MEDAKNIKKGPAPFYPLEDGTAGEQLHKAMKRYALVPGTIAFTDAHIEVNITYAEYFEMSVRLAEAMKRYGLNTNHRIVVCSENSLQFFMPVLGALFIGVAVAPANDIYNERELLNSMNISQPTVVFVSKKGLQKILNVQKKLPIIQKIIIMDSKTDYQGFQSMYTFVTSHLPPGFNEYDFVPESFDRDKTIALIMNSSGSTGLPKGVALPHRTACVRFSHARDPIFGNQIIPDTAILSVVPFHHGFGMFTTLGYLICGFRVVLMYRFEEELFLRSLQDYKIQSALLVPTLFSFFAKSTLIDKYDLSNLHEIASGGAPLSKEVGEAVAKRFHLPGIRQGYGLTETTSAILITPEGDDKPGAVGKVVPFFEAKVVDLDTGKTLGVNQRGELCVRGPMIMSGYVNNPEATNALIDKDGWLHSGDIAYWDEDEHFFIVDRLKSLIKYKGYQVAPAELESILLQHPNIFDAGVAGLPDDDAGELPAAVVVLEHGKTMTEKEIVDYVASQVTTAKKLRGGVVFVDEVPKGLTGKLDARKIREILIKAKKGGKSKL
# UniProt P33261, sequence (P33261 whole entry, looked up): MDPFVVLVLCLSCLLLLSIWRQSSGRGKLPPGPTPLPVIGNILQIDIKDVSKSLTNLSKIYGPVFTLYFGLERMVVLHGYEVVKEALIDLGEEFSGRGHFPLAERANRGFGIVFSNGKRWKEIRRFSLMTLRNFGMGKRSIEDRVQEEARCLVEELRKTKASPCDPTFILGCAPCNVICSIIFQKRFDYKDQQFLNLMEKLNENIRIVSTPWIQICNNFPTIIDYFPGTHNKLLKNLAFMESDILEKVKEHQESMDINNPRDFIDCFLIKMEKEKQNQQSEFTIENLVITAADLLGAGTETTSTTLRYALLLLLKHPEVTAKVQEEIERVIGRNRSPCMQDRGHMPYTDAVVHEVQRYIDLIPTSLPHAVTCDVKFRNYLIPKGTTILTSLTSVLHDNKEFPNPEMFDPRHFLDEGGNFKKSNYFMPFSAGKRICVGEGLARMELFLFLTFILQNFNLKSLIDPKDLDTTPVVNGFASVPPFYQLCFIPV
# UniProt Q07343, sequence (Q07343 whole entry, looked up): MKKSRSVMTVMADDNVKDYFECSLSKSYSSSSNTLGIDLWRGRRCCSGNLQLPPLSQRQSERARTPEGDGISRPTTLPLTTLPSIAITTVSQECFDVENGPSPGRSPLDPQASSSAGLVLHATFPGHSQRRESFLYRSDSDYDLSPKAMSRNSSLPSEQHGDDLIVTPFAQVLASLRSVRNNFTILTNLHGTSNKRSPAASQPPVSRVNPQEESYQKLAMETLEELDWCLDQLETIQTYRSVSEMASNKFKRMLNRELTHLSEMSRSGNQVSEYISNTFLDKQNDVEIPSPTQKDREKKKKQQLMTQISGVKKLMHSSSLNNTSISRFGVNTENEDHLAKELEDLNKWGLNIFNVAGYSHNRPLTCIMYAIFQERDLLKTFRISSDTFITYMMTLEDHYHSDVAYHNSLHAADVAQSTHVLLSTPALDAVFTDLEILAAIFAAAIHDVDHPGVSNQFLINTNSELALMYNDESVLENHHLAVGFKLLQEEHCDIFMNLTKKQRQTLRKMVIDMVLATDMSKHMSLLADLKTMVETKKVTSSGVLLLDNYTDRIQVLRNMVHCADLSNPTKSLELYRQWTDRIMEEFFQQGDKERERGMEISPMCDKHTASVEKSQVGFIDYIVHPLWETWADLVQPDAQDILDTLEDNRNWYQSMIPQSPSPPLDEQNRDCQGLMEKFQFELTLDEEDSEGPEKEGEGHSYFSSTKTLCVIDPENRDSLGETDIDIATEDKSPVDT
structure (smiles),measurement,setting,value
CC(C)NC(=O)N1CCOCCOCCN(C(=O)NC(C)C)CCOCCOCC1,"activity change, negative = inhibition",[1],inactive: 0.977%
same,activation,[2],inactive: 3.05%
N[C@@]1(C(=O)O)CCC[C@@H]1C(=O)O,"activity, negative = inhibition",[3],inactive: 9.09%
N#Cc1c(N)n(CCOC(=O)c2cccc(Br)c2)c2nc3ccccc3nc12,"activity change, negative = inhibition",[1],inconclusive: 86.5% [activator]
same,activation,[2],inconclusive: 29.2%
O=C(COc1ccc(F)cc1)OCCN1CCOCC1,"activity, negative = inhibition",[3],inactive: 11.3% [at 17.2 µM]
COc1ccc2[nH]cc(CCNc3nc(-c4cccc(NS(C)(=O)=O)c4)nc4ccccc34)c2c1,"activity change, negative = inhibition",[1],inconclusive: -31.2% [inhibitor] [at 7.69 µM]
same,Potency,[4],inactive
Cn1cnc([N+](=O)[O-])c1Sc1nc(N)nc2c1ncn2Cc1ccccc1,"activity change, negative = inhibition",[1],inactive: -1.11% [at 7.69 µM]
same,activation,[2],inactive: -1.88%
Cn1c(OCc2cccnc2)nc2c1c(=O)n(Cc1ccccc1)c(=O)n2C,"activity change, negative = inhibition",[1],inactive: -1.28%
same,Potency,[2],"inconclusive: 3.98 µM [inhibitor, partial curve]"
Cc1ccccc1C(=O)c1ccc2c(c1)n(C)c(=O)n2C,"activity change, negative = inhibition",[1],inconclusive: -36.3% [inhibitor]
same,activation,[2],inactive: -17.8%
O=C(CC(c1ccccc1)c1ccco1)N1CCOCC1 (configuration not stated),"activity, negative = inhibition",[3],inconclusive: 13% [activator] [at 17.2 µM]
Cc1cccc(CNc2ncncc2-c2cccc(C#N)c2)c1,"activity, negative = inhibition",[3],inactive: 14.8%
same,Potency,[5],"inconclusive: 100 µM [inhibitor, partial curve, poor fit]"
COCCNc1ccnc(-c2ccccc2CN(C)C)n1,"activity, negative = inhibition",[3],inactive: 11.3%
Cc1nn(C)cc1CNC(=O)c1ccc(Br)o1,"activity, negative = inhibition",[3],inactive: 6.82% [at 17.2 µM]
CCOC(=O)[C@]1(CC(=O)O)CCCC1=O,"activity, negative = inhibition",[3],inactive: -19.1%
CC1(C)[C@@H]2CC[C@]1(C)[C@@H](OC(=O)CSC#N)C2,"activity, negative = inhibition",[3],inconclusive: -37.5% [inhibitor]
same,"activity change, negative = inhibition",[6],inactive: 3.81% [at 11.4 µM]
same,activation,[2],inactive: -0.299%
same,Potency,[7],inactive
same,Potency,[8],"inconclusive: 10 µM [inhibitor, single point]"
same,Potency,[9],inactive
same,Potency,[10],inactive
same,Potency,[11],inactive
same,Potency,[12],inactive
same,Potency,[13],"inconclusive: 17.8 µM [inhibitor, single point]"
Cc1c(-c2cccs2)[n+](=O)c2c(n1[O-])CCCC2,"activity, negative = inhibition",[3],inactive: 6.22% [at 17.2 µM]
COc1cccc(C2/C(=C(\O)c3ccc4c(c3)OCCO4)C(=O)C(=O)N2CCCN(C)C)c1OC (configuration not stated),"activity, negative = inhibition",[3],inactive: 4.4% [at 17.2 µM]
COc1ccc(CNc2ccnc(-c3c(C)noc3C)n2)c(OC)c1,"activity, negative = inhibition",[3],inactive: 0.0565%
same,Potency,[14],"inconclusive: 12.6 µM [activator, partial curve]"
same,Potency,[15],active: 1.58 µM
same,Potency,[5],"inconclusive: 39.8 µM [inhibitor, partial curve, poor fit]"
COc1cc2nc(-c3ccccc3)nc(N3CCCC3)c2cc1OC,"activity, negative = inhibition",[3],inconclusive: 42.8% [activator] [at 17.2 µM]
CC(C)NC[C@H](O)c1cc(O)cc(O)c1,"activity, negative = inhibition",[3],inconclusive: -31.9% [inhibitor] [at 38 µM]
same,Potency,[6],"inconclusive: 31.6 µM [activator, partial curve, poor fit]"
same,Potency,[2],"inconclusive: 631 nM [inhibitor, full curve] and inconclusive: 25.1 nM [inhibitor, full curve]"
same,Potency,[16],"inconclusive: 32.2 µM [inhibitor, partial curve, poor fit]"
same,"ratio activity, negative = inhibition",[17],inconclusive: 2.02%
same,Potency,[18],inactive
same,Potency,[9],"inconclusive: 17.8 µM [inhibitor, single point]"
same,Potency,[11],inactive
same,Potency,[19],inactive
CC(C)Cc1nc(N2CCOCC2)c(C#N)c2c1COC(C)(C)C2,"activity, negative = inhibition",[3],inactive: 4.57% [at 17.2 µM]
